Data from PMC4336329 (PLoS ONE, 2015).
The campaign covered roughly 310,000 compounds. About 2,200 (0.71%) showed an effect of 50% or more. Effects have a minus sign here. Some of the results follow.

target: human ether-à-go-go-related gene (hERG) potassium channel (human, UniProt Q12809); assay: primary screen, population patch clamp on CHO cells stably expressing hERG
Sequence (Q12809 whole entry, looked up): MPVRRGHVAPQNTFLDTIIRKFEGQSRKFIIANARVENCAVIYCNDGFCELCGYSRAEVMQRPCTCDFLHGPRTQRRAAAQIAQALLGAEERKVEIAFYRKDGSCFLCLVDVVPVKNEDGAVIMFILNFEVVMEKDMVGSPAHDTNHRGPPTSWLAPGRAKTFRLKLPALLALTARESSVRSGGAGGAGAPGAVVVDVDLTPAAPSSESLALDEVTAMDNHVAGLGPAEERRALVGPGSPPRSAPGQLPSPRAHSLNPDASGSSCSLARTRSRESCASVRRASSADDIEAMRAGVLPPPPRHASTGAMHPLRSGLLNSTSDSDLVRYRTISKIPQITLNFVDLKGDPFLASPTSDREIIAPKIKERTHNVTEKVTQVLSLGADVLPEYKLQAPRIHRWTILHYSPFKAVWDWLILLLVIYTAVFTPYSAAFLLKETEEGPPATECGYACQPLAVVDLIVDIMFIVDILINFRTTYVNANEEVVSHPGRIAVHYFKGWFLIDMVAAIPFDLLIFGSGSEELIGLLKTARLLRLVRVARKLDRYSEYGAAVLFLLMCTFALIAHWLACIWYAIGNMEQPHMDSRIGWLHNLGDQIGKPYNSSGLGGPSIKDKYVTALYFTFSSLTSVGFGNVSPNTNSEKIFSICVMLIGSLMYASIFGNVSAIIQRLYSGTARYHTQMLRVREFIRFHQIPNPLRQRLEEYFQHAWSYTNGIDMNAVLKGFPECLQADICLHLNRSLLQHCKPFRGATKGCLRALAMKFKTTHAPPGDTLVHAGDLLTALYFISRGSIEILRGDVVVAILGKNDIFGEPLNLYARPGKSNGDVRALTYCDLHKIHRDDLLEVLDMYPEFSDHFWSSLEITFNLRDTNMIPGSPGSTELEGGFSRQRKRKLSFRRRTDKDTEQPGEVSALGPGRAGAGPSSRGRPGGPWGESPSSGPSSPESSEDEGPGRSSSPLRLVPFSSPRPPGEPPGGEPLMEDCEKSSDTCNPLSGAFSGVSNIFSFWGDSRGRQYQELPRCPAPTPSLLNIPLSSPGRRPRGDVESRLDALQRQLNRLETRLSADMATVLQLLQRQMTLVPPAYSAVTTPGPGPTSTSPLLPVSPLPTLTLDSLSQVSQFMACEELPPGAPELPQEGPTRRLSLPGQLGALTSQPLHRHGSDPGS

Row | SMILES | hERG current change (%, negative = inhibition) at 1uM [%]
1 | Nc1c(O)ccc2c1C(=O)c1ccccc1C2=O | 10.5
2 | Nn1c(COc2ccc(Cl)cc2)n[nH]c1=S | 12.6
3 | COC(=O)c1ccc2nc(-c3ccc(S(C)(=O)=O)cc3)cn2c1 | -5.02
4 | COCCNC(=S)NC(=O)c1ccc(C(C)(C)C)cc1 | 1.39
5 | S=c1[nH]cc(-c2ccc(Cl)cc2)n1Cc1ccccc1 | 7.63
6 | Cc1sc2nc(SCC(=O)N3CCOCC3)[nH]c(=O)c2c1-c1ccccc1 | 6.6
7 | CCOC(=O)c1cc2c(C(F)(F)F)cc(-c3cccnc3)nc2o1 | 0.0731
8 | O=C1N(c2cccc(Cl)c2)C(c2ccccc2)N2CCCN12 (stereo not shown) | 5.85
9 | O=C(CN1CCC(Cc2ccccc2)CC1)N1CCc2ccccc2C1 | -62.2
10 | CC(=O)N1c2ccc(Cl)cc2C2C=CCC2C1c1cccc2ccccc12 (stereo not shown) | 14.1
11 | COc1ccc(C(N)=S)cc1 | 5.32
12 | Cn1c(=O)c(C(=O)CCl)c(N)n(Cc2ccccc2)c1=O | 1.63
13 | CN(C)c1ccc(/C=[N+](\[O-])C2SC(=S)N(C)C2(C)C)cc1 (stereo not shown) | 7.33
14 | Cn1c(=O)[nH]c(=O)c2c1nc(Br)n2CCOc1ccccc1 | 4.72
15 | O=C(Cc1cccs1)N1CCCC(c2nc3c(nnn3Cc3ccc(F)cc3)c(=O)[nH]2)C1 (stereo not shown) | -3.78
16 | Cc1ccc(-n2nnnc2SCC(=O)N(CC(C)C)c2c(N)n(CC(C)C)c(=O)[nH]c2=O)cc1 | 10.9
17 | CCCN(CC(=O)Nc1ccccc1C)C(=O)c1ccc(N2CCCC2)c([N+](=O)[O-])c1 | 3.26
18 | COc1ccc(CCC(C)Nc2ccc(F)cc2)cc1 (stereo not shown) | 3.67
19 | CCOC(=O)c1ccc(-n2c(CCC(=O)O)ccc2-c2ccc(F)cc2)cc1 | 5.7
20 | O=C(/C=C/c1ccc2c(c1)OCO2)Nc1cccnc1 | -1.79
21 | CC(NCCC(Cc1ccccc1)c1ccco1)c1ccccc1 (stereo not shown) | 8.97
22 | CC1CCCCN1C(=O)CN1C(=O)CN(C)C(=O)c2ccccc21 (stereo not shown) | 6.16
23 | Cc1nn(Cc2ccccc2)c(N)c1-c1ccccc1 | -5

Row | SMILES | hERG current change (%, negative = inhibition) at 1uM [%]
24 | COc1ccccc1C(=O)Nc1ccc(S(=O)(=O)N2CCC(C)CC2)cc1 | 8.51
25 | CC(C)Cc1nc(N2CCN(C(=O)c3ccccc3)CC2)c(C#N)c2c1CCC2 | -5.73
26 | CC(=O)c1cccc(-n2nnnc2SCC(=O)Nc2cccc(NC(=O)c3ccco3)c2)c1 | -3.09
27 | CC(=O)Nc1ccc(S(=O)(=O)Nc2nc3ccccc3nc2Nc2ccccc2)cc1 | 5.59
28 | NC(=O)CCN1CCCCC1 | 7.47
29 | C/C(N)=C(/C#N)C(=O)COC(=O)c1cccc(O)c1 | -0.273
30 | CS(=O)(=O)Cc1cccc(C(=O)NN(c2ccccc2)c2ccccc2)c1 | 12.9
31 | Nn1cc(-c2ccccc2)nc1SCC(=O)Nc1ccc(S(N)(=O)=O)cc1 | 5.21
32 | CC(C)CC(C(=O)Nc1oc(-c2ccco2)c(-c2ccco2)c1C#N)N1C(=O)c2ccccc2C1=O (stereo not shown) | 13.4
33 | COc1cc(C(=O)NCCC(=O)NC2CCC(C)CC2)cc(OC)c1OC (stereo not shown) | 21.7
34 | CC(Cc1ccco1)NC(=O)c1ccc(C(F)(F)F)cc1 (stereo not shown) | 23.1
35 | CNC(=O)CSc1nc2[nH]ncc2c(=O)[nH]1 | 6.71
36 | Cc1cc(C)nc(SCC(=O)NC2CCCC2)n1 | 1.7
37 | N#C/C(N=Nc1ccccc1O)=N\Nc1ccccc1O | 12.8
38 | COc1cc(OC)c(-c2nnc(-c3ccc(OC)c(OC)c3OC)o2)cc1OC | 11.7
39 | CCC(=O)Nc1ccc2c(c1)ncn2-c1ccccc1C | -2.01
40 | O=C(COC(=O)CNC(=O)c1ccc(Cl)cc1Cl)Nc1ccc(N2CCOCC2)cc1 | 13.7
41 | COc1ccc(C2c3c(ncn(CCCN4CCOCC4)c3=N)Oc3ccc4ccccc4c32)cc1OC (stereo not shown) | -8.02
42 | Cc1cc(NC(=O)CCC(=O)N(CC(=O)NC2CCCC2)c2ccc(C(C)C)cc2)no1 | -11.6
43 | O=C(NCC(=O)c1ccccc1)OCc1ccc([N+](=O)[O-])cc1 | 6.14
44 | c1ccc(-c2cn3nc(-c4ccccc4)sc3n2)cc1 | -4.04
45 | [Br-].c1ccc(N2CC[N+]3(CCCC3)CC2)nc1 | 4.94
46 | Cc1c(Cl)cccc1NC(=O)NCCCN1CCCC1=O | 8.07

Row | SMILES | hERG current change (%, negative = inhibition) at 1uM [%]
47 | CN1CCCC1CCNS(=O)(=O)c1ccc(Br)cc1 (stereo not shown) | -0.753
48 | O=C(CCCc1nc(-c2ccc(Cl)cc2)no1)NCC1CCCO1 (stereo not shown) | 7.37
49 | O=C(CC(NC(=O)c1ccccc1Cl)c1ccccc1)NCCc1ccc(Cl)cc1 (stereo not shown) | 10.8
50 | Cc1cc(-c2cc(-c3ccccc3)on2)nc(NC2CCCC2)n1 | 17.1
51 | O=C(C1=C(O)C(=O)N(c2nccs2)C1c1ccccc1)c1cc2ccccc2o1 (stereo not shown) | 22.2
52 | O=C(NC(Cc1ccccc1)C(=O)O)/C(=C\c1ccc(F)cc1)NC(=O)c1ccccc1 (stereo not shown) | 23.8
53 | COc1ccc(N=Cc2c(O)c3ccccc3n2C(C)=O)cc1 | 9.51
54 | COc1ccc(Cl)cc1NC(=O)CN(C)C(=O)Cn1[nH]c(=O)c2ccccc2c1=O | 4.24
55 | COc1ccc(-c2cccc(NC(=O)c3ccc4c(c3)OCO4)c2)nn1 | 12.6
56 | CCN1CCN(C(=O)c2cc3sccc3n2CC(=O)c2ccccc2)CC1 | -22.1
57 | COC(=O)c1cc(S(=O)(=O)NCCCc2ccco2)c[nH]1 | 5.52
58 | COc1ccccc1NC(=O)Cc1cccs1 | -0.824
59 | COc1cccc(C(=O)OCCNC(=O)c2cccnc2)c1.Cl | 10.5
60 | CC(C)Cc1nc(N2CCN(C(=O)C(C)C)CC2)c(C#N)c2c1CCC2 | 7.49
61 | O=C(CNc1cc(S(=O)(=O)N2CCOCC2)ccc1N1CCCC1)N1CCc2ccccc21 | 6.29
62 | COc1cccc(CN2CCN(Cc3cccc4nonc34)CC2CCO)c1 (stereo not shown) | -24
63 | COCCNC(=O)C(c1ccccc1F)N(C(=O)C(=O)NC1CCCC1)C1CCCCC1 (stereo not shown) | 3.99
64 | Cc1cc(-c2ccccc2)nc(N(C)N)c1S(C)(=O)=O | 12.6
65 | O=C(CC(SCCO)c1ccc([N+](=O)[O-])cc1)c1ccco1 (stereo not shown) | -0.704
66 | OC1(c2ccc(Br)cc2)CCNCC1 | -2.9
67 | COC(=O)CC1Nc2ccccc2SC1=O (stereo not shown) | 4.03
68 | Cc1c(Cl)c(C(=O)NC2CCCC2)nn1C | -5.44
69 | Cc1c(Cl)cccc1N1C(=O)NC(=O)/C(=C\c2cc(C)n(-c3cccc(C(=O)O)c3C)c2C)C1=O | 11.1

Row | SMILES | hERG current change (%, negative = inhibition) at 1uM [%]
70 | CCCCC(=O)NC(NC(=O)CCCC)c1ccc(OCC(C)C)c(OC)c1 | 9.77
71 | CCN1C(=S)N[C@@H](c2cccc(F)c2)C(C(=O)OC)=C1C | 9
72 | Cc1oc(-c2cc3c(cc2Cl)OCO3)nc1CN1CCCC1c1ccc(F)cc1 (stereo not shown) | -2.74
73 | CSCC(=O)Nc1ccc(F)c(Cl)c1 | 15.6
74 | COc1ccc(N2CCN(CC(=O)Nc3sccc3C#N)CC2)cc1 | 5.49
75 | Cc1cccc(-c2nc3ccc(C(=O)N4CCC5(CC4)OCCO5)cc3nc2-c2cccc(C)c2)c1 | 17.4
76 | S=C(Nc1ccc2c(c1)OCO2)Nc1ccc2c(c1)OCO2 | 13.4
77 | COc1ccc(CCNC(=O)c2cn(C)c3ccc(S(=O)(=O)N4CCOCC4)cc3c2=O)cc1OC | 16.8
78 | Cc1ccc(C2N(C)C(=O)c3ccccc3N2C)cc1 (stereo not shown) | 9.12
79 | COc1ccc(N2CC(C(=O)NC3CCSC3=O)CC2=O)cc1 (stereo not shown) | 7
80 | O=[N+]([O-])c1ccc(CN2CCCCCC2)s1 | 8.77
81 | Cc1nn(C)c(C)c1CN(C)C(=O)C1c2ccccc2Oc2ccccc21 | -2.61
82 | COc1cccc(C(=O)Nc2ccccc2N2CCCC2)c1 | -0.367
83 | Cc1ccc(O)c(-c2cc(-c3cccc(Br)c3)n[nH]2)c1 | 7.07
84 | Cc1cc(/C=N/NC(N)=S)c(C)n1-c1ccc(Cl)c(Cl)c1 | 2.25
85 | C=C(C)c1cccc(C(C)(C)NC(=O)Nc2ncccn2)c1 | -1.24
86 | FC(F)(F)c1cnc(C(c2ccccn2)c2ncn[nH]2)c(Cl)c1 (stereo not shown) | 8.81
87 | COc1ccc(/C(N)=N/OC(=O)c2cccc([N+](=O)[O-])c2C)cc1 | -7.56
88 | O=C(O)[C@H]1CCCC[C@H]1C(=O)Nc1ccc(S(=O)(=O)N2CCCCC2)cc1 | 2.43
89 | O=C(Nc1ccc2c(c1)OCCO2)c1ccco1 | 6.27
90 | Cc1ccc(S(=O)(=O)N2CCOCC2)cc1NC(=O)COC(=O)CNC(=O)c1ccc(C(C)(C)C)cc1 | 20.2
91 | COc1ccc(-c2nnc(SCC(=O)N3CCCc4ccccc43)o2)cc1OC | 1.96
